One test addresses FLAG-RAB7 (UniProt P51149). Nature of the test: co-IP; HeLa^WT cells transiently co-expressing VPS41-APEX2-V5 constructs and FLAG-RAB7 or GFP-Arl8b; IP on FLAG or GFP, respectively; CHAPS lysis buffer.
A further test has as its target GFP-Arl8b (UniProt Q9NVJ2). The description is as above.
The target of test [1] is T1, endogenous VPS18 (human (endogenous in HeLa)) (UniProt Q9P253).
T1 sequence: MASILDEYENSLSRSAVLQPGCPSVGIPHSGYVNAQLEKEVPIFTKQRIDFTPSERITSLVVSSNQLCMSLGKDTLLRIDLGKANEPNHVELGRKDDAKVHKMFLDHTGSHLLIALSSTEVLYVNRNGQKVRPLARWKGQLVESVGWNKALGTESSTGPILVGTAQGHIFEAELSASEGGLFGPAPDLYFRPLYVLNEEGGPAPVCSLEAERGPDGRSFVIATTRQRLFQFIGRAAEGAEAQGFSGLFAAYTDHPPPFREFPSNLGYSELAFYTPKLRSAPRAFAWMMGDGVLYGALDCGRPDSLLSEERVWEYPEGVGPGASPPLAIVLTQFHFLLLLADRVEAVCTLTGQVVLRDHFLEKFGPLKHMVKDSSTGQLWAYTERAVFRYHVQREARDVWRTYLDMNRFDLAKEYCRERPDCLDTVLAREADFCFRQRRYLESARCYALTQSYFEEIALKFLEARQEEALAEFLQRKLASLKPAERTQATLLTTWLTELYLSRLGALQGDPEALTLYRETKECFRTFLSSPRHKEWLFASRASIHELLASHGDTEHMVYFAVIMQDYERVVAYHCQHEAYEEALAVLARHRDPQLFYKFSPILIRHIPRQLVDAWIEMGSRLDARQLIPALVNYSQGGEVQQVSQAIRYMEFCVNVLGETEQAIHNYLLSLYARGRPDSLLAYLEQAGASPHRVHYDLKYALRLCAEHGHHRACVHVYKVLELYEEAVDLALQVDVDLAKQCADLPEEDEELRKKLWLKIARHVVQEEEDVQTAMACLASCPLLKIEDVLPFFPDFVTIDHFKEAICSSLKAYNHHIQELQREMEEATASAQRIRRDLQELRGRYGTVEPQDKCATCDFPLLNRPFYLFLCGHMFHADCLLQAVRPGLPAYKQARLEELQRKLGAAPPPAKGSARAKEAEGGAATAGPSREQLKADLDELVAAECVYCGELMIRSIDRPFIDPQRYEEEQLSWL
Nature of the test: co-IP; HeLa^VPS41KO cells expressing GFP-tagged VPS41 constructs; endogenous VPS18 detected; CHAPS lysis buffer.

Protein sequences, listed by entry. Tags and fused reporters are not part of them.
UniProt P51149: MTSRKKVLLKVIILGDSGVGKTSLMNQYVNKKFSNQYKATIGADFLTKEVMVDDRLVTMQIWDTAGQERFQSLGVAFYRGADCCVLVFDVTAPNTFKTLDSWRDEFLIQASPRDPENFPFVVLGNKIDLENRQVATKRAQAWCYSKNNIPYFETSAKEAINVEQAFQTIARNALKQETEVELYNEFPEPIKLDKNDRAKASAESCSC
UniProt Q9NVJ2: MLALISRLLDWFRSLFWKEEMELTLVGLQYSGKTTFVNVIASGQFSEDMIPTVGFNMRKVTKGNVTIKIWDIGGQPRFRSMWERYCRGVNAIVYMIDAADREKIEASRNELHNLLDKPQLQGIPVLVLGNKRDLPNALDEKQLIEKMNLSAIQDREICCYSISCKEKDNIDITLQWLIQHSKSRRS

Where a chain is given by its changes, count along the chain named. Numbers in names are those of the source. Results are given in words; binding and its absence hold for the method and conditions named. Binding seen in cells or lysates may run through a third protein. Some entries that bind do so weakly or less than the wild type. Tags and fused reporters may be left off the sequences shown.

B1: VPS41^R662*-APEX2-V5 (domain or fragment, UniProt P49754-1 1-661)
chain: MAEAEEQETGSLEESTDESEEEESEEEPKLKYERLSNGVTEILQKDAASCMTVHDKFLALGTHYGKVYLLDVQGNITQKFDVSPVKINQISLDESGEHMGVCSEDGKVQVFGLYSGEEFHETFDCPIKIIAVHPHFVRSSCKQFVTGGKKLLLFERSWMNRWKSAVLHEGEGNIRSVKWRGHLIAWANNMGVKIFDIISKQRITNVPRDDISLRPDMYPCSLCWKDNVTLIIGWGTSVKVCSVKERHASEMRDLPSRYVEIVSQFETEFYISGLAPLCDQLVVLSYVKEISEKTEREYCARPRLDIIQPLSETCEEISSDALTVRGFQENECRDYHLEYSEGESLFYIVSPRDVVVAKERDQDDHIDWLLEKKKYEEALMAAEISQKNIKRHKILDIGLAYINHLVERGDYDIAARKCQKILGKNAALWEYEVYKFKEIGQLKAISPYLPRGDPVLKPLIYEMILHEFLESDYEGFATLIREWPGDLYNNSVIVQAVRDHLKKDSQNKTLLKTLAELYTYDKNYGNALEIYLTLRHKDVFQLIHKHNLFSSIKDKIVLLMDFDSEKAVDMLLDNEDKISIKKVVEELEDRPELQHVYLHKLFKRDHHKGQRYHEKQISLYAEYDRPNLLPFLRDSTHCPLEKALEICQQRNFVEETVYLLS
For B1, the binding result with FLAG-RAB7 and with GFP-Arl8b was “binds” in each case.

B2: GFP-VPS41^R662* (domain or fragment, UniProt P49754-1 1-661)
chain: B1 chain
Take B2: in test [1], the binding result was “no binding”.

B3: VPS41^S285P-APEX2-V5 (protein, UniProt P49754-1 1-854)
chain: MAEAEEQETGSLEESTDESEEEESEEEPKLKYERLSNGVTEILQKDAASCMTVHDKFLALGTHYGKVYLLDVQGNITQKFDVSPVKINQISLDESGEHMGVCSEDGKVQVFGLYSGEEFHETFDCPIKIIAVHPHFVRSSCKQFVTGGKKLLLFERSWMNRWKSAVLHEGEGNIRSVKWRGHLIAWANNMGVKIFDIISKQRITNVPRDDISLRPDMYPCSLCWKDNVTLIIGWGTSVKVCSVKERHASEMRDLPSRYVEIVSQFETEFYISGLAPLCDQLVVLPYVKEISEKTEREYCARPRLDIIQPLSETCEEISSDALTVRGFQENECRDYHLEYSEGESLFYIVSPRDVVVAKERDQDDHIDWLLEKKKYEEALMAAEISQKNIKRHKILDIGLAYINHLVERGDYDIAARKCQKILGKNAALWEYEVYKFKEIGQLKAISPYLPRGDPVLKPLIYEMILHEFLESDYEGFATLIREWPGDLYNNSVIVQAVRDHLKKDSQNKTLLKTLAELYTYDKNYGNALEIYLTLRHKDVFQLIHKHNLFSSIKDKIVLLMDFDSEKAVDMLLDNEDKISIKKVVEELEDRPELQHVYLHKLFKRDHHKGQRYHEKQISLYAEYDRPNLLPFLRDSTHCPLEKALEICQQRNFVEETVYLLSRMGNSRSALKMIMEELHDVDKAIEFAKEQDDGELWEDLILYSIDKPPFITGLLNNIGTHVDPILLIHRIKEGMEIPNLRDSLVKILQDYNLQILLREGCKKILVADSLSLLKKMHRTQMKGVLVDEENICESCLSPILPSDAAKPFSVVVFHCRHMFHKECLPMPSMNSAAQFCNICSAKNRGPGSAILEMKK
Regarding B3, the binding result with FLAG-RAB7 and with GFP-Arl8b was “binds” each time.

B4: VPS41^WT-APEX2-V5 (protein, UniProt P49754-1 1-854)
chain: B3 chain with P285S
Consider B4, for which the binding entry with GFP-Arl8b is recorded as “binds”.

The values above are taken from article PMC8103106.
